Among all 150,000 compounds or so, about 540 (0.36%) showed an effect of 50% or more. The list shows a part of the results.
These compounds were tested on Plasmodium falciparum (assay: Primary screen in NF54 nanoGlo assay, in single point, at 2uM, 72h; a lower Z score goes with more inhibition). Conditions: timepoint 72 hour.
Assay type: functional, Erythrocyte
In the case of CCn1ccc2c(CN3CCO[C@H](C(=O)O)C3)cccc21, the “% Inhibition” value is reported as -6% and the Z score is reported as 0.6.
Cn1cnc2c1CN(C(=O)c1ccoc1)CC2 was tested, and the “% Inhibition” value was -10% and the Z score was 1.1.
In the case of N#Cc1c([C@H]2CCCNC2)cc(-c2ccc(Cl)c(Cl)c2)nc1N, the “% Inhibition” value is reported as -4% and the Z score is reported as 0.69.
With COc1cccc(C(=O)N2C[C@@H]3CC[C@H]2CN(Cc2ccccn2)C3)c1O the “% Inhibition” value was -13% and the Z score was 1.3.
In the case of COc1ccccc1CN1CC[C@H]2CC(=O)Nc3ccccc3OCC[C@H]2C1, the “% Inhibition” value is reported as 1% and the Z score is reported as -0.14.
For O=C(Nc1ccccc1OCCc1ccccn1)N[C@H]1CCCNC1=O, the “% Inhibition” value was -2% and the Z score was 0.25.
With Cc1oc(C)c(C(=O)Nc2ccc(N(C)C)nc2)c1C the “% Inhibition” value was -23% and the Z score was 4.34.
In the case of Cc1nccn1C1CN(C(=O)COc2ccc(F)cc2)C1, the “% Inhibition” value is reported as -7% and the Z score is reported as 0.94.
For Cc1ccc(C)c(C(=O)N2[C@@H]3CC[C@H]2CC(NC(=O)c2cnc(C)cn2)C3)c1 (stereo not given in full), the “% Inhibition” value was -10% and the Z score was 1.93.
In the case of Cn1c(CN2CCCCCC2)nnc1C1CCN(C(=O)c2ccc[nH]2)CC1, the “% Inhibition” value is reported as -6% and the Z score is reported as 1.34.
For CC(C)(C)c1ccc(OCC2CC(F)(F)C2)nn1, the “% Inhibition” value was -14% and the Z score was 1.82.
With Cn1c(=O)n(CC2(CS(C)(=O)=O)CC2)c2ccccc21 the “% Inhibition” value was 6% and the Z score was -1.12.
O=C(NCCCc1nc(=O)[nH][nH]1)c1coc(C2CCCCC2)n1 was tested, and the “% Inhibition” value was -7% and the Z score was 0.64.
In the case of Cc1cscc1CNC(=O)N1CCS(=O)(=O)CC[C@@H]1C, the “% Inhibition” value is reported as 10% and the Z score is reported as -1.12.
For CC1=CCN(C(=O)Nc2cc3c(cc2N(C)C)n(C)c(=O)n3C)CC1, the “% Inhibition” value was -11% and the Z score was 1.06.
With O=C(O)c1ccccc1CCC(=O)N1CC[C@H](C2CCOCC2)C1 the “% Inhibition” value was -16% and the Z score was 1.92.
In the case of Cc1ccccc1CN1CCC[C@H](N2CCOCC2)C1=O, the “% Inhibition” value is reported as -15% and the Z score is reported as 1.92.
With O=C(c1ccc(O)cn1)N1C[C@H]2CCC[C@@H](C2)C1 the “% Inhibition” value was 0% and the Z score was -0.01.
In the case of C[C@@H]1CN(Cc2ccccc2)CCN1C(=O)NCc1nnn(C)n1, the “% Inhibition” value is reported as -16% and the Z score is reported as 3.06.
For COCCN(Cc1ccoc1)C(=O)NCCOc1ccccc1, the “% Inhibition” value was -17% and the Z score was 2.21.
For CC(C)c1nccn1CC(=O)N(C)c1nccs1, the “% Inhibition” value was -6% and the Z score was 0.65.
Cc1cc(C(=O)N2CCC(CS(N)(=O)=O)CC2)c(C)n1C(C)C was tested, and the “% Inhibition” value was -7% and the Z score was 1.26.
With COc1ccc(OC)c(N2C(=O)[C@@H]3C[C@H]2CN3C(=O)c2ccc3ccccc3n2)c1 the “% Inhibition” value was -17% and the Z score was 2.26.
In the case of Cc1nc([C@@H]2CCCN2c2ncc(Br)cn2)no1, the “% Inhibition” value is reported as -29% and the Z score is reported as 3.36.
With Cc1[nH]nc(CCC(=O)N2C[C@@H]3CC[C@H]2CN(Cc2ccccn2)C3)c1C the “% Inhibition” value was 1% and the Z score was -0.12.
For Cc1cc(=O)[nH]c(CNC(=O)COC[C@H]2CCCCO2)n1, the “% Inhibition” value was -17% and the Z score was 1.59.
With O=S(=O)(NC[C@H]1Cc2ccccc2CO1)c1cccnc1 the “% Inhibition” value was -4% and the Z score was 0.41.
For Cc1nc(-c2ccc(NC(=O)[C@@H]3Cc4ccccc4O3)cc2)co1, the “% Inhibition” value was -6% and the Z score was 0.58.
In the case of CC(C)(Nc1ccccc1)C(=O)N1CCn2cncc2C1, the “% Inhibition” value is reported as -6% and the Z score is reported as 1.07.
With Cn1c(C(=O)N2CCC(C(=O)O)CC2)ccc1-c1ccccc1Br the “% Inhibition” value was -9% and the Z score was 1.13.
For Cc1nnc(NC(=O)NCc2cccnc2N2CCOCC2)s1, the “% Inhibition” value was 23% and the Z score was -3.07.
In the case of Cc1ccc(CN2CCC3(CCC(=O)N(C4CC4)C3)CC2)c(F)c1F, the “% Inhibition” value is reported as 10% and the Z score is reported as -1.35.
In the case of COc1ccc(CNc2cncc(-c3nncn3C)c2)cc1OCc1cccnc1, the “% Inhibition” value is reported as -8% and the Z score is reported as 0.84.
COc1ccc([C@H](CNC(=O)Nc2ccc(S(N)(=O)=O)cc2)N2CCCCC2)cc1 was tested, and the “% Inhibition” value was -8% and the Z score was 1.19.
For CCN(CC1CCOCC1)C(=O)CN1CCCCCC1=O, the “% Inhibition” value was 15% and the Z score was -1.91.
In the case of COc1ccc(NC(=O)N2CCN(CCn3c(-c4ccccc4)nc4cccnc43)CC2)cc1OC, the “% Inhibition” value is reported as 5% and the Z score is reported as -0.59.
With CC#CCN1C(=O)N[C@@](CCc2ccccc2)(C2CCN(Cc3cccs3)CC2)C1=O the “% Inhibition” value was -4% and the Z score was 0.57.
With COc1ccc(C(NCC2(OC)CCOCC2)C2CCCN2C(=O)OC(C)(C)C)cc1 (stereo not given) the “% Inhibition” value was -8% and the Z score was 1.52.
With CC(C)CCn1c(CCCC(=O)N2CCC(C)CC2)nc2cccnc21 the “% Inhibition” value was -19% and the Z score was 2.35.
In the case of Cc1cc(NC(=O)[C@H]2CCC2(C)C)ncn1, the “% Inhibition” value is reported as -8% and the Z score is reported as 1.47.
For CCc1c(-c2ccncc2)n[nH]c1NS(=O)(=O)c1cncc(F)c1, the “% Inhibition” value was -20% and the Z score was 2.72.
CC(=O)Nc1ncc(Br)cc1C was tested, and the “% Inhibition” value was 33% and the Z score was -0.41.
For O=C(c1cc2c(F)cccc2s1)N1CCC[C@H]1c1ccc2c(c1)OCCO2, the “% Inhibition” value was -4% and the Z score was 0.49.
For CN(C(=O)CS(C)(=O)=O)C1CCC(C(C)(C)C)CC1 (stereo not given), the “% Inhibition” value was -7% and the Z score was 1.34.
For Cc1ccncc1NC(=O)c1snnc1C1CC1, the “% Inhibition” value was -7% and the Z score was 0.9.
CN1CCN2CCN(C(=O)CCc3cccc(O)c3)C[C@@H]2C1 was tested, and the “% Inhibition” value was -1% and the Z score was 0.29.
CS(=O)(=O)N1CCN(c2nc(C(F)(F)F)nc3ccsc23)CC1 was tested, and the “% Inhibition” value was -13% and the Z score was 1.9.
In the case of Cc1cnn(CCNc2nn3cc(C)nc3s2)c1, the “% Inhibition” value is reported as -4% and the Z score is reported as 0.48.
For O=C1C(N2CCCC2c2ccc3c(c2)OCCO3)CCN1CC(F)(F)F (stereo not given), the “% Inhibition” value was -3% and the Z score was 0.32.
With CCN(c1nccnc1C)S(=O)(=O)c1ccc2c(c1)C(=O)N(C)C2=O the “% Inhibition” value was -7% and the Z score was 1.11.
In the case of CCn1cc(C(=O)N2C[C@H]3CN(S(=O)(=O)CC)C[C@@]3(c3nc(C)no3)C2)cn1, the “% Inhibition” value is reported as -6% and the Z score is reported as 0.8.
CS(=O)(=O)c1ccsc1NC(=O)CCc1ccc(Cl)s1 was tested, and the “% Inhibition” value was -7% and the Z score was 1.3.
In the case of C[C@@H](c1cccnc1)N(C)Cc1ccc2c(c1)CCO2, the “% Inhibition” value is reported as 5% and the Z score is reported as -0.82.
For N#Cc1ccc(-n2nc([C@H]3CCOC3)nc2CC2=CCCC2)cc1, the “% Inhibition” value was -5% and the Z score was 0.68.
Cn1c(=O)c2c(ncn2CC(=O)c2ccc3c(c2)CCO3)n(C)c1=O was tested, and the “% Inhibition” value was -15% and the Z score was 1.24.

Source: ChEMBL document CHEMBL4888484, “Replenishing the malaria drug discovery pipeline: Screening and hit evaluation of the MMV Hit Generation Library 1 (HGL1) against asexual blood stage Plasmodium falciparum ,using a nano luciferase reporter read-out” (2022)
